Laboratory results published in paper PMC4336329 (PLoS ONE, 2015).
Out of some 310,000 compounds screened, about 14,000 (4.5%) showed an effect of 50% or more. The effect is printed as a negative number. Some of the results follow.

target: human ether-à-go-go-related gene (hERG) potassium channel (human, UniProt Q12809); test: primary screen, population patch clamp on CHO cells stably expressing hERG
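Note: peak tail current of the secondary pulse compared with the same well before compound.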

Chain of human ether-à-go-go-related gene (hERG) potassium channel (Q12809 whole entry, looked up): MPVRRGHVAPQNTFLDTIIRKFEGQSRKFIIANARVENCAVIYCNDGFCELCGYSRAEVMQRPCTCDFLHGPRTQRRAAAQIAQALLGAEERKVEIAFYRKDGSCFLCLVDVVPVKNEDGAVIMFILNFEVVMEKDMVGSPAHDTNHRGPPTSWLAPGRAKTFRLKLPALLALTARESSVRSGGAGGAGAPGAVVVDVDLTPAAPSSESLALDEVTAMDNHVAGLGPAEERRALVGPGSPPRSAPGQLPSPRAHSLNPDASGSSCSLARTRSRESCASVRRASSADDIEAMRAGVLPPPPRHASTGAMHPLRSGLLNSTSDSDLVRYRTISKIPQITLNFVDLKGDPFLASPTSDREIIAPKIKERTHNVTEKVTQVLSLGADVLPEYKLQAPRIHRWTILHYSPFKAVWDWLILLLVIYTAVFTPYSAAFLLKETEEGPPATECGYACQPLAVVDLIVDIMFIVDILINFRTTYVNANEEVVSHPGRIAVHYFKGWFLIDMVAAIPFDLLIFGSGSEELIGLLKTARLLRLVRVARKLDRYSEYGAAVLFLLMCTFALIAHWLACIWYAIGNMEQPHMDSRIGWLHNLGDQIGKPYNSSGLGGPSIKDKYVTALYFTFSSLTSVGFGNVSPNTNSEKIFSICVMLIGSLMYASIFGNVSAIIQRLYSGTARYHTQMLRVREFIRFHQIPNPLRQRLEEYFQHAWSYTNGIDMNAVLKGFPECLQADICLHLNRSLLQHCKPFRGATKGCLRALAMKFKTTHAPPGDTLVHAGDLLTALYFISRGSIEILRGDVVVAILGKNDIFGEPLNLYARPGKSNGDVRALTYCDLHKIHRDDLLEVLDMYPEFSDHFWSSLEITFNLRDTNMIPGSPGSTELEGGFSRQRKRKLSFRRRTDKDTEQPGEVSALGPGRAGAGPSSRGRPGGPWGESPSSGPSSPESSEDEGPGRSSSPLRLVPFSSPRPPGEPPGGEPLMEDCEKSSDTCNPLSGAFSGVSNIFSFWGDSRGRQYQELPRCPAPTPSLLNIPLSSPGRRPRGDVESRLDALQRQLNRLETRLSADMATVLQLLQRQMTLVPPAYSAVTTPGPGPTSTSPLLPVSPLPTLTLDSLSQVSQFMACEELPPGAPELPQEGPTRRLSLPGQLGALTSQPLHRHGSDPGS

Row | SMILES | hERG current change (%, negative = inhibition) at 10uM [%]
1 | Cc1ccc2nc(-c3cccc(Br)c3)cc(C(=O)Nn3cnnc3)c2c1 | 5.71
2 | C=CCOC(=O)C1=C(C)OC(N)=C(C#N)C1c1ccc2c(c1)OCO2 (stereo not shown) | 9.17
3 | O=C(CN1C(=O)c2cccnc2C1=O)c1ccccc1 | -1.88
4 | CN=C1C=C/C(=N/N=c2\ccn(O)cc2C)C=C1C | -32.6
5 | CCCCC(=O)NCCc1ccc(OC)cc1 | 6.41
6 | O=C(c1ccc(-c2ccccc2)cc1)C1CCCN(C(=O)c2cncs2)C1 (stereo not shown) | -22.9
7 | CCc1nc(SCC(=O)NCCc2ccccc2)n[nH]1 | -3.42
8 | O=C(CSc1ccc2nnc(-c3ccccn3)n2n1)NCc1ccc2c(c1)OCO2 | -74.4
9 | COc1cc(COc2ccc3c(C)c(Cc4ccccc4)c(=O)oc3c2)cc(OC)c1OC | -15.8
10 | CCCNC(=O)c1ccc(C2SCC(=O)N2CCc2ccccc2)cc1 (stereo not shown) | -4.02
11 | Cc1noc(C)c1C(=O)Nc1ccc(-c2nnc3n2CCCCC3)cc1 | 5.46
12 | COc1cc(/C=N/NC(=O)c2c(C)nc3ccc(Cl)cn23)cc(OC)c1OC | 14.4
13 | COc1ccc(-n2nnnc2SCC(=O)Nc2ccccc2)cc1 | 16
14 | CCn1cnc2scc(-c3ccc(C)c(C)c3)c2c1=O | -23.1
15 | Cc1cccc(CNc2ccc(S(=O)(=O)N3CCCCC3)cc2)c1 | -38.6
16 | O=C(Cc1ccccc1)Nc1ccccc1C(=O)Nc1ccc(C(=O)O)cc1 | 1.41
17 | CCOC(=O)C1(CC)NC(c2ccc(OC)cc2OC)C2C(=O)N(C)C(=O)C21 (stereo not shown) | 2.74
18 | COCCCNCC(O)COc1ccccc1F (stereo not shown) | 5.58
19 | COc1ccc(OC)c2sc(NC(=O)c3ccc(Cl)s3)nc12 | 11.4
20 | CC(CNC(=O)CN1C(=O)CCSc2ccccc21)c1ccccc1 (stereo not shown) | 12.9

Row | SMILES | hERG current change (%, negative = inhibition) at 10uM [%]
21 | Clc1ccc(C[n+]2csc3ccccc32)cc1.[Br-] | 9.64
22 | O=C(COC(=O)CCc1nc2ccccc2c(=O)[nH]1)Nc1ccccc1Cl | 2.62
23 | Cc1nc2c(ccc3nc(NC(=O)C4CC4)sc32)s1 | 5.71
24 | CCC(O)CNC(=O)CCc1nnc(C2(c3ccc(Cl)cc3)CCC2)o1 (stereo not shown) | 11.3
25 | CC(=O)N1c2ccccc2NC2=C(C(=O)CCC2)C1c1ccco1 (stereo not shown) | 13.4
26 | CCCCc1cc(=O)oc2cc(OCC(=O)N3CCC(C(=O)O)(c4ccccc4)CC3)ccc12 | -1.97
27 | CCOC(=O)C1CCN(C(=O)CSc2cc(=O)n(CC)c3ccccc23)CC1 | -29.4
28 | Cc1c2n(c3ccccc13)CCN(C)C2 | 10.5
29 | C=CCn1c(O)c(C=Nc2ccc(OC)cc2C)c(=O)[nH]c1=O | 7.24
30 | Nc1nc(-c2ccccc2)nn1C(=O)c1ccco1 | -4.19
31 | O=C(c1ccc(C(=O)N2CCN(c3ccccc3F)CC2)nc1)N1CCN(c2ccccc2F)CC1 | -3.5
32 | CCN1/C(=C2/SC(=S)N(C)C2=O)C=Cc2cc(C)ccc21 | -1.96
33 | O=S(=O)(c1ccc(OC(F)(F)F)cc1)N1CCCC(c2ccccc2)C1 (stereo not shown) | 14.5
34 | CCOC(=O)c1ccc2[nH]c3c(c2c1)CCCC3 | -19.2
35 | Cc1ccc(C)c(S(=O)(=O)Nc2ccc(C(=O)NCCCN3CCOCC3)cc2)c1 | -9.18
36 | CCCN(CCC)C(=O)C1CC(=O)OC12CCCCC2 (stereo not shown) | 7.26
37 | O=C(O)c1ccc(N/N=C/c2ccc(-c3ccc(Cl)cc3Cl)o2)cc1 | 10.7
38 | O=C(CN(CCCN1CCOCC1)C(=O)Cn1nnc(-c2ccc(F)cc2)n1)NC1CCCCC1 | -14.5
39 | CCOC(=O)C1=C(c2ccccc2)NC(=S)NC1C (stereo not shown) | 10.1
40 | COc1cc(N)ccc1NC(=O)c1cc2ccccc2o1 | 13.1

Row | SMILES | hERG current change (%, negative = inhibition) at 10uM [%]
41 | CCc1ccc2c(CC(=O)NNC(=O)c3ccncc3)coc2c1 | 1.23
42 | CNC(=O)N(C)c1nnc(C(C)(C)C)s1 | 1.9
43 | CC(C)n1c(N2CCN(C(=O)Nc3ccc(F)cc3F)CC2)nc2ccccc21 | -26.3
44 | COc1ccc(CCNC(=O)C(=O)NCC2OCCN2S(=O)(=O)c2ccc(C)cc2)cc1 (stereo not shown) | -14.8
45 | COC(=O)[C@@H](NC(=O)Nc1ccc2c(c1)OCCO2)C(C)C | 13.3
46 | Cc1ccc(-c2cc(C(=O)NCCCN3CCCC3)c3ccccc3n2)cc1C | -37.5
47 | CNC(=O)CSc1cn(CC(=O)N(C(C)C)C(C)C)c2ccccc12 | -1.53
48 | Cc1cc(NC(=O)CSc2nnc(C3CC3)n2-c2ccccc2)no1 | -13
49 | COc1cccc(C=Nc2ccc3c(c2)OCCO3)c1O | 9.98
50 | COc1ccc2c(C(=O)CN(C)C3CCCCC3)c[nH]c2c1 | 9.09
51 | CCOC(=O)CN1C(=O)N[C@@H](CCc2ccccc2)[C@H](C(C)=O)[C@H]1C | -1.65
52 | Cc1ccc2[nH]c(O)c(N=NC(=O)C3CC3c3ccccc3)c2c1Br (stereo not shown) | -55.7
53 | O=C(COc1ccc2c(c1)CCC2)Nc1ccccn1 | 5.23
54 | Nc1nc(Br)c2ccccc2c1-c1ccccc1 | 9.89
55 | O=C(Nc1ccccc1)c1ccccc1NC(=O)c1ccccc1[N+](=O)[O-] | -9.99
56 | CCCOc1ccccc1C1CC(=O)NC(C)=C1C(=O)OCC(C)C (stereo not shown) | -0.723
57 | CSC1=NSC2=NC(=O)/C(=C\c3cccs3)C(=N)N12 | 3.68
58 | CCOc1ccc(S(=O)(=O)N2CCN(Cc3ccccc3)CC2)c2cccnc12 | -42.6
